This note sets out measurements from PubChem BioAssay AID1745853 (National Center for Advancing Translational Sciences (NCATS), 2022).

What all share (assay): Primary Screen for Target Class Profiling of Small Molecule Inhibitors of Methyltransferases
The target of assay [1] is Glycine N-methyltransferase (Homo sapiens) (UniProt Q14749). The conditions noted are these: purified enzyme, MTase-Glo SAH luminescence; measured here: GNMT inhibition; at 40 µM; stronger effect = lower value. The method in brief: (§1)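 Each enzyme was assayed with SAM and its substrate. SAH formation detected by MTase-Glo luminescence; single-point 40 uM screen[…].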

Assay [2] addresses Guanidinoacetate N-methyltransferase (Homo sapiens) (UniProt Q14353). The conditions noted are these: purified enzyme, MTase-Glo SAH luminescence; measured here: GAMT inhibition; at 40 µM; stronger effect = lower value. The method in brief: as §1
Assay [3] has as its target Histamine N-methyltransferase (Homo sapiens) (UniProt P50135). The conditions noted are these: purified enzyme, MTase-Glo SAH luminescence; measured here: HNMT inhibition; at 40 µM; stronger effect = lower value. Summed up: as §1
Assay [4] concerns the target Nicotinamide N-methyltransferase (Homo sapiens) (UniProt P40261). As to conditions: purified enzyme, MTase-Glo SAH luminescence; measured here: NNMT inhibition; at 40 µM; stronger effect = lower value. The method in brief:
as §1

The target of assay [5] is Phenylethanolamine N-methyltransferase (Homo sapiens) (UniProt P11086). The conditions noted are these: purified enzyme, MTase-Glo SAH luminescence; measured here: PNMT inhibition; at 40 µM; stronger effect = lower value. Summed up: as §1

This is one part of the list. Further columns of the screen follow, without active or inactive calls.
% is set by controls: 0 for no effect and ±100 for the full control effect.

Take `CC(C)Cn1c(=O)c2ccc(C(=O)NC(C)C)cc2n2c(=O)n(CC(=O)c3ccccc3)nc12`: the activity change, negative = inhibition in assay [1] was 2.56%; in assay [2], 0.577%; in assay [3], 6.31%; in assay [4], -3.33%; in assay [5], 3.63%.
Consider `COc1ccc2cc3n(c2c1)CC(C)(C(=O)NC1CCCCC1)N(Cc1ccc2c(c1)OCO2)C3=O` (stereo unspecified), for which the activity change, negative = inhibition in assay [1] was 0.818%; in assay [2] it was 0.807%; in assay [3], 0.053%; in assay [4], -2.21%; in assay [5], -3.85%.
`O=C1CN(Cc2ccccc2)S(=O)(=O)c2ccccc2N1Cc1ccccc1`: the activity change, negative = inhibition in assay [1] came out at 15.3%; in assay [2] it was 4.6%; in assay [3] it was 12.7%; in assay [4] it was 4.16%; in assay [5] it was 11%.
Consider `CCOc1ccc(CCN2C(=O)c3c(C(=O)OC)ncn3CC2(C)C(=O)NC2CCCCC2)cc1` (stereo unspecified), for which the activity change, negative = inhibition in assay [1] is -1.34%; in assay [2] it was 1.43%; in assay [3], 4.71%; in assay [4] it was 1.5%; in assay [5], 0.951%.
As for `C[C@@H](Oc1ccc2[nH]nc(/C=C/c3cnn(CCO)c3)c2c1)c1c(Cl)cncc1Cl`, the activity change, negative = inhibition in assay [2] was 11.4%; in assay [4] it was -9.11%; in assay [5], -6.45%.
In the case of `CCc1nc(NC2CCCC2)ncc1C(=O)O`, the activity change, negative = inhibition was -6.04% in assay [1]; -7.75% in assay [2]; -3.13% in assay [3]; -8.77% in assay [4]; -1.59% in assay [5].
For `CC(C)(C=O)Cc1cc(C(C)(C)C)c(O)c(C(C)(C)C)c1` the same measures were -2.87%, 15.2%, -0.998%, -5.88% and 6.32%.
For `CC(C)OCCCNC(=O)C1(C)Cn2c(cc3ccccc32)C(=O)N1Cc1ccc(OC(C)C)cc1` (stereo unspecified) the same measures were 3.18%, 3.21%, 5.33%, 0.814% and -1.13%.
In the same order, the values of `CC(C)=C/C=C\[C@H](C)[C@H]1CC[C@]2(C)C[C@@H]3C(C)=CC(=O)C3/C(CO)=C\C[C@@H]12` (stereo partly specified) are -4.83%, 4.58%, 8.52%, -12.4% and -7%.
Turning to `CCCOc1ccc(CN2C(=O)c3cc4ccccc4n3CC2(C)C(=O)NC2CCCCC2)cc1` (stereo unspecified), the activity change, negative = inhibition was -1.09% in assay [1]; 0.172% in assay [2]; 4.33% in assay [3]; 1.61% in assay [4]; 1.28% in assay [5].
Turning to `Cc1ccc(NS(=O)(=O)c2cc3c(cc2F)NC(=O)CC3)cc1Cl`, the activity change, negative = inhibition in assay [2] is 3.37%; in assay [4], -18.7%; in assay [5] it was -5.06%.
Consider `COc1ccc(N2C(=O)c3cc4sccc4n3CC2(C)C(=O)NC2CCC(C)CC2)cc1Cl` (stereo unspecified), for which the activity change, negative = inhibition in assay [1] is -2.23%; in assay [2], 4.1%; in assay [3] it was -1.67%; in assay [4], -2.16%; in assay [5], -5.16%.
In the case of `COc1ccc(CN2CCOC[C@H]2c2ncc(-c3cccnc3)[nH]2)cc1`, the activity change, negative = inhibition in assay [1] was -2.39%; in assay [2], -3.12%; in assay [3], -1.93%; in assay [4], -4.7%; in assay [5] it was -11.1%.
For the molecule `COc1ccccc1CNC(=O)C1c2c(n(C)c3ccccc23)SCC(=O)N1c1ccccc1F` (stereo unspecified), the activity change, negative = inhibition in assay [1] was 1.71%; in assay [2], 1.21%; in assay [3], 1.08%; in assay [4] it was 2.09%; in assay [5], 6.32%.
In the same order, the values of `CCCn1c(=O)c2ccc(C(=O)NC(C)CC)cc2n2c(=O)n(Cc3cccc(F)c3)nc12` (stereo unspecified) are 4.76%, 0.435%, 8.24%, 0.981% and 3.73%.
In the same order, the values of `CCOC(=O)c1cc2n(n1)CC(C)(C(=O)NCc1ccccc1)N(c1cc(C)ccc1C)C2=O` (stereo unspecified) are -1.2%, 6.47%, 0.269%, -3% and -4.5%.
Turning to `Cc1ccc([C@@H]2CN(C(=O)CN3CCOC3=O)C[C@H]2NC(=O)C2CC2)cc1`, the activity change, negative = inhibition in assay [1] was -4%; in assay [2] it was -6.25%; in assay [3] it was -2.77%; in assay [4] it was -10.7%; in assay [5], -5.41%.
For the molecule `COc1ccc2cc3n(c2c1)CC(C)(C(=O)NCC1CCCO1)N(CCc1ccc(Cl)cc1)C3=O` (stereo unspecified), the activity change, negative = inhibition worked out at 5.37% in assay [1]; 6.08% in assay [2]; 9.3% in assay [3]; 8.82% in assay [4]; 0.809% in assay [5].
In the same order, the values of `COc1cccc(CNC(=O)c2cc3n(n2)CC(C)(C(=O)NCc2ccc(C)cc2)N(C)C3=O)c1` (stereo unspecified) are 8.11%, 3.54%, 8.48%, 1.54% and 6.72%.
For `Cn1ncnc1[C@@H]1c2n[nH]c(=O)c3cc(F)cc(c23)N[C@H]1c1ccc(F)cc1`, the activity change, negative = inhibition in assay [1] is -4.73%; in assay [2] it was -6.95%; in assay [3] it was -0.101%; in assay [4] it was -19.1%; in assay [5], -0.571%.
In the same order, the values of `CNC(=O)c1ccccc1Nc1nc(Nc2ccc(N3CCNCC3)cc2)ncc1Cl` are -61.5%, -6.26%, -44.5%, -60.9% and -24.3%.
In the case of `CCc1ccc(S(=O)(=O)c2nnn3c2nc(NCC2CCCO2)c2cc(Cl)ccc23)cc1` (stereo unspecified), the activity change, negative = inhibition in assay [1] is -9.22%; in assay [2], 4.01%; in assay [3] it was -3.34%; in assay [4], 1.35%; in assay [5], -7.31%.
In the same order, the values of `Cc1ccc(C(=O)C(C)n2nc3n(C(C)C)c(=O)c4ccc(C(=O)NCC(C)C)cc4n3c2=O)cc1C` (stereo unspecified) are 6.44%, 0.573%, 9.73%, 4.39% and 7.8%.
As for `COc1ccc(Cc2ncc3c(n2)CN(C(=O)c2ccc(OC)c(O)c2)C3)cc1`, the activity change, negative = inhibition in assay [1] was -6.29%; in assay [2], 0.559%; in assay [3] it was -1.05%; in assay [4] it was -3%; in assay [5], 1.97%.
Turning to `O=C(Cn1ccc2cc(S(=O)(=O)N3CCCCC3)ccc21)NCC1CCCO1` (stereo unspecified), the activity change, negative = inhibition in assay [1] was determined as 6.62%; in assay [2], 1.63%; in assay [3], 6.69%; in assay [4], 4.25%; in assay [5] it was 3.85%.
Turning to `CCCN1C(=O)c2c(C(=O)NCc3ccco3)ncn2CC1(C)C(=O)NCCC(C)C` (stereo unspecified), the activity change, negative = inhibition in assay [1] was found to be 2.13%; in assay [2], 0.397%; in assay [3] it was 4.46%; in assay [4], 4.52%; in assay [5] it was 4.95%.
Consider `Cc1cc(C)c2c(c1)C(N(Cc1cc(C(F)(F)F)cc(C(F)(F)F)c1)c1nnn(C)n1)CCCN2CC1CCC(C(=O)O)CC1` (stereo unspecified), for which the activity change, negative = inhibition is -3.07% in assay [1]; -0.911% in assay [2]; 3.79% in assay [3]; -26.2% in assay [4]; -3.77% in assay [5].
In the same order, the values of `CCOc1ccccc1CN1C(=O)c2cc3oc(C)cc3n2CC1(C)C(=O)NC1CCCCCC1` (stereo unspecified) are -0.328%, 0%, 2.27%, 0.215% and -0.23%.
Regarding `COc1ccc(C2c3cccn3-c3sc4c(c3CN2C(=O)NCc2ccc(F)cc2)CCCC4)cc1` (stereo unspecified), the activity change, negative = inhibition in assay [1] is -2.61%; in assay [2], 4.01%; in assay [3], 4.47%; in assay [4], -0.009%; in assay [5], 0.383%.
In the case of `Cc1cnn(CCC(=O)NC2CCN(c3ccc(=O)n(C)n3)CC2)c1`, the activity change, negative = inhibition was -3.45% in assay [1]; 0.321% in assay [2]; 1.59% in assay [3]; -2.72% in assay [4]; -0.922% in assay [5].
